Assay results reported in paper PMC3087822 (Nature structural & molecular biology, 2011).

Target: full-length rat Munc18-1 (rat)
Assay: SEC

Binder	binding result
syntaxin-1A([…]) (C145S, S249C), rhodamine-labeled (domain or fragment) not shown	binds
syntaxin-1A([…]) (R210E, C145S, S249C), rhodamine-labeled (domain or fragment) not shown	binds
